Experimental data: paper PMC4336329 (PLoS ONE, 2015)
Out of some 310,000 compounds screened, about 14,000 (4.5%) showed an effect of 50% or more. Effects have a minus sign here. The list shows a part of the results.

molecular target: human ether-à-go-go-related gene (hERG) potassium channel (human, UniProt Q12809); experiment: primary screen, population patch clamp on CHO cells stably expressing hERG
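Note: peak tail current of the secondary pulse compared with the same well before compound.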

human ether-à-go-go-related gene (hERG) potassium channel, sequence (Q12809 whole entry, looked up): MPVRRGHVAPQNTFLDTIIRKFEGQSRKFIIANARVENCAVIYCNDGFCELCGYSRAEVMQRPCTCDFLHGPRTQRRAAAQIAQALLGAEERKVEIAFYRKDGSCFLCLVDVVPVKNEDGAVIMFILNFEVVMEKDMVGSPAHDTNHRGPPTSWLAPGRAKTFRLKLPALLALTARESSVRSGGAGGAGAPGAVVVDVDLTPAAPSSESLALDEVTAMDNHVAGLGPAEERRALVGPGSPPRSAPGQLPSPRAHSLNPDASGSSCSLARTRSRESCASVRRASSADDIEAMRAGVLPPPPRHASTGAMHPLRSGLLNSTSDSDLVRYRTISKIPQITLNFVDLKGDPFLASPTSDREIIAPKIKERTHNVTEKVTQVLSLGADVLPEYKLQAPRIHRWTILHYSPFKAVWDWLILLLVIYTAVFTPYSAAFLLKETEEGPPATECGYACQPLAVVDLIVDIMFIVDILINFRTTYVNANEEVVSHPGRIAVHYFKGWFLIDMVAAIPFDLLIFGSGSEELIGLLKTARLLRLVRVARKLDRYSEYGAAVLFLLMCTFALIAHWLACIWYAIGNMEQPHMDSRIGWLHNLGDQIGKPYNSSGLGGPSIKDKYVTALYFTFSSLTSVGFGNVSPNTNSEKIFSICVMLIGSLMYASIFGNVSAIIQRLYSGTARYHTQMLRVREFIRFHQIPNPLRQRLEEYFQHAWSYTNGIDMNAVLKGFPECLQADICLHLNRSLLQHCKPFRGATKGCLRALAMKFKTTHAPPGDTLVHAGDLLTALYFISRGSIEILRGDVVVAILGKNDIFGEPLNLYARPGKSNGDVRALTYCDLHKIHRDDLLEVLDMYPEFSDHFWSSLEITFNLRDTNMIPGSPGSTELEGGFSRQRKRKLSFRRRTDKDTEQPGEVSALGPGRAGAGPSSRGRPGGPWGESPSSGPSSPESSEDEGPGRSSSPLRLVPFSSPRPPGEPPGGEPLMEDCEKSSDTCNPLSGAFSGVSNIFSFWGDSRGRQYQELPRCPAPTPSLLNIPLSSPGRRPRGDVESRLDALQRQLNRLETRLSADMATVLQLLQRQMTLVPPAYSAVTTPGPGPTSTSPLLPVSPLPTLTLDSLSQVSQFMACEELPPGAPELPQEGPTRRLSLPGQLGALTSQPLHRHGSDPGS

SMILES | hERG current change (%, negative = inhibition) at 10uM [%]
CCOC(=O)c1cccc(NC(=O)CN2CCN(c3ccc(OC)cc3)CC2)c1 | -31.1
C[C@H]1CN=C(Nc2ccccc2)N1CC1CCCCC1 | 0.474
O=C1CC(=O)N(c2cccc(F)c2)N1 | 20.5
CCCCn1c(N)c(N(CCOC)C(=O)CCCc2nc3ccccc3c(=O)[nH]2)c(=O)[nH]c1=O | 4.54
O=C(CCC(=O)c1cccs1)OCc1nc2ccccc2s1 | 15.6
Cc1ccc(-c2nc(C3CCCN(S(=O)(=O)c4ccc(C)cc4)C3)no2)cc1 (centres unmarked) | 12.2
CCN(CC(=O)Nc1ccccc1C(F)(F)F)C(=O)CN1C(=O)NC2(CCCCC2)C1=O | 3.96
CN1CCN(C(=O)c2cc(-c3cccc(Cl)c3)on2)CC1 | -1.97
CCCCOC(=O)c1sc2nc(C)cc(C)c2c1N | 11.7
Cc1ccc(-c2cc(C(=O)N(C)CC(=O)Nc3ccccc3Br)c3ccccc3n2)o1 | -7.28
CCOC(=O)C1=C(C)OC(N)=C(C#N)C1c1cc(F)ccc1F (centres unmarked) | -9.31
O=C(NCc1cccnc1)/C(=C/c1ccc(-c2ccc(Cl)cc2)o1)S(=O)(=O)c1ccccc1 | -2.83
Cc1ccccc1-n1nc2c(c1NC(=O)c1c(-c3ccccc3Cl)noc1C)CSC2 | -10.9
COc1ccc(NS(=O)(=O)c2ccc(NC(=O)Cc3cccs3)cc2)cc1 | 12.7
O=C(COC(=O)/C=C/c1cccc(Br)c1)NCCC1=CCCCC1 | 32.1
CCCCCCC(=O)N/N=C/c1ccc(Br)cc1 | 1.25
Cc1ccccc1NC(=O)CN1CCN(C)CC1.O=C(O)C(=O)O | 2.24
CCc1ccc(OCC(=O)N(CC)CC)cc1 | -55
O=c1[nH]c(=S)n(C2CC2)c(O)c1C=NCc1ccc(F)cc1 | 12.7

SMILES | hERG current change (%, negative = inhibition) at 10uM [%]
COc1ccc(Cl)cc1N(CC(=O)Nc1ccc2c(c1)OCCO2)S(C)(=O)=O | -3.52
Cc1ccc(Cn2cnc3sc4c(c3c2=O)CCC4)c(C)c1 | 1.77
O=C(CSc1nc2ccccc2c(=O)n1-c1ccccc1)N1CCCc2ccccc21 | -4.39
COCCCNC(=S)NC1CC2CCCC(C1)N2Cc1cccs1 (centres unmarked) | -15.9
COc1ccc(CCC(C)N2CCC(Oc3ccc(C(=O)N4CCCC4)cc3)CC2)cc1 (centres unmarked) | -65.4
O=C(Cn1cnc2ccccc2c1=O)NNC(=O)c1cccc([N+](=O)[O-])c1 | 7.43
Cc1cnc(NC(=O)Cc2ccc(Br)cc2)s1 | 14.9
Cc1nc2ncnn2c(C)c1Cc1cccc(F)c1 | 6.72
O=C(COn1nnc2ccc(C(F)(F)F)cc21)Nc1c(Cl)cccc1Cl | -2.2
COc1ccc(C(C)(C)C)cc1NC(=O)CN1C(=O)C(=O)N(Cc2ccco2)C1=O | 2.86
COc1ccc(-n2c(C)c(C)c3c(N)ncnc32)cc1 | 4.6
COC(=O)c1ccccc1NC(=O)c1ccc(COc2ccc3c(c2)CCC3)cc1 | 5.47
C/C=C(/C)C(=O)Nc1cccc(C2=NOC3(C2)C[C@H](C(N)=O)N(C(=O)c2ccccc2)C3)c1 (some centres unmarked) | -3.11
O=C1CCCC2=C1C(c1ccc(O)c(O)c1)c1c(ccc3ncccc13)N2 (centres unmarked) | 17.1
CC(C)c1cc(C(=O)NCc2ccco2)no1 | 2.53
CCCCC/C=N/NC(=O)c1[nH]c2ccc([N+](=O)[O-])cc2c1C | -29.9
COc1ccc(N2CCN(C(CNC(C)=O)c3ccco3)CC2)cc1 (centres unmarked) | 20.2
Oc1ccc(Br)cc1/C=N/n1c(COc2ccccc2)n[nH]c1=S | 16.5
CC(Sc1nc2ccccc2c(=O)[nH]1)C(=O)O (centres unmarked) | 11.7

SMILES | hERG current change (%, negative = inhibition) at 10uM [%]
Cc1onc(-c2ccccc2)c1-c1n[nH]c(=S)n1-c1ccccc1 | 19.4
CC(C)c1cc(C(=O)N2CCCC(CCC(=O)N3CCN(c4ccccn4)CC3)C2)no1 (centres unmarked) | -36.8
Nc1nnc(SCC(=O)N2CCc3ccccc3C2)s1 | 11.7
O=C(Nc1ccccc1)/C(=C/c1ccc([N+](=O)[O-])cc1)NC(=O)c1ccco1 | 6.42
O=C(COc1ccc([N+](=O)[O-])cc1)Nc1ccc2c(c1)nc1n2CCOC1 | -31.1
CN(C)CCCN1C(=O)CSC1c1ccccc1.Cl (centres unmarked) | 1.24
Cc1ccc(CNC(=O)CSc2nc3c(sc4ccccc43)c(=O)n2CCCN2CCCC2)cc1 | -82.8
CCC(C)(C)C1CCc2c(sc(NC(=O)c3ccccc3C(=O)O)c2C#N)C1 (centres unmarked) | 10.3
O=C(Nc1ccc(Br)cc1)c1cccc(N2C(=O)C3CCCCC3C2=O)c1 (centres unmarked) | 1.69
Cc1nc2cc(-c3ccsc3-n3c(C)ccc3C)[nH]n2c(=O)c1Cl | -7.67
NC(=O)C1CCN(Cc2ccc(OCc3ccccc3)cc2)CC1.O=C(O)C(=O)O | -29.5
COC(=O)c1ccc(NC(=S)Nc2cccc(C)n2)cc1 | -0.48
Cc1ccc(S(=O)(=O)N2CCOCC2)cc1NC(=O)CSc1ncccn1 | -4.68
CCOCCCNc1nc2c(C)cccn2c(=O)c1/C=C1\SC(=S)N(C(C)CC)C1=O (centres unmarked) | 10.9
Cc1ccc(C(=O)OCC(=O)N2C(C)CCCC2C)cc1S(=O)(=O)N1CCOCC1 (centres unmarked) | -13
Cc1ccc(NC(=S)NC(NC(=O)C(C)(C)C)C(Cl)(Cl)Cl)c(C)c1 (centres unmarked) | -24.6
COC(=O)c1ccc(CN2CCCC(CO)(Cc3ccccc3F)C2)cc1 (centres unmarked) | -32.7
CCN(CC)S(=O)(=O)c1cccc(C(=O)Oc2cccnc2)c1 | -8.07
